Values marked as one replicate rest on one cluster of the flow cell; about a third of the high ones do not repeat.

The subject of this data set is ATP. Nature of the data set: switch fluorescence ratio, 500 uM ATP over buffer (Cy3 cluster intensity, sum of 5 cycles each) (fold (ratio)); higher = stronger signal-on switching upon ATP binding; sequences stand for … in TCGTCGGCAGCGTCAGATGTGTATAAGAGACAGTTTTTTTTTTTTTTTTTTTTTTTTT…TC. The following applies: aptamer strand: ATP DNA aptamer (quencher-CACCTGGGGGAGTATTGCGGAGGAAGG + anchor), 100 nM annealed; ATP concentration: 500 uM; one replicate. The gist of the method:
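Per cluster, summed Cy3 intensity from the target cycles was divided by that from the buffer cycles to give the fluorescence ratio, then averaged per switch-domain sequence. Clusters outside 100-1000 RFU were excluded. The Cy3-labelled switching-strand clusters, on a modified Illumina MiSeq flow-cell, were annealed to 100 nM quencher-labelled ATP aptamer and imaged in selection buffer, then after 15 min with 500 uM ATP at 22 °C, for five cycles with NaOH stripping and re-annealing between them.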
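Note: ATP exposure 15 min at 22 °C before imaging.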

In the case of ACCGTGGAAC, the switch fluorescence ratio is 1.14.
As for GATTGAGAAC, the figure is 0.965; as for TCTTTTCCAT, 0.979.
GGTTGAAGAA: the switch fluorescence ratio came to 0.995.
As for AATTTTTGCG, the figure is 0.953.
As for ACCTCACCGG, the figure is 1.29.
Regarding TCTAGGAAGA, the switch fluorescence ratio is 0.987.
In the case of CAGAGGCGTA, the switch fluorescence ratio is 1.07.
CATTGGCATT: the switch fluorescence ratio amounted to 1.01.
As for TCGCGGAGAC, the figure is 2.69; as for TAAAGACTAG, 1.05.
Next, CGATCAATAA: 1.84; GTAGGAATAG: 2.46.
As for CGATTGGCGG, the switch fluorescence ratio is 0.952.
Next, CTTCAGCGCT: 1.03.
With AGGGTGCGGT, the switch fluorescence ratio amounted to 0.968.
ACTCCTGGGG: the switch fluorescence ratio amounted to 1.31.
Regarding GTAGCTTGAA, the switch fluorescence ratio worked out at 1.01.
As for TAAGTCATCG, the figure is 1.03.
Regarding GTATGAGATA, the switch fluorescence ratio came out at 1.01.
For AGGTACGGAT, the switch fluorescence ratio worked out at 0.957.
Next, GGCATAAAAC: 1.1.
Consider ACTTCGTTTG, for which the switch fluorescence ratio amounted to 1.08.
As for CCACCAAGGT, the figure is 2.01; as for ACATACATG, 1.12; as for TGAATGTAGG, 0.999.
As for GGCGCCGTCT, the figure is 0.946; as for CGATGGCGCG, 0.97.
For TAGGGAGGTC, the switch fluorescence ratio came out at 1.02.
Next, GATGGAGACG: 1.05; GTAGTTGCGT: 0.973; GGCCTACTTA: 1.04.
TGGGCGACGG: the switch fluorescence ratio stood at 1.03.
CAGGCCTATA: the switch fluorescence ratio was 0.985.
Next, ACGTCACTTA: 1.65; TTTAGAGGTT: 0.978; GCCTGACGAA: 1.73.
For CACGGAGTTG, the switch fluorescence ratio came to 1.
In the case of AAGCCCTAGG, the switch fluorescence ratio was found to be 1.04.
For the sequence GAATTCCCCG, the switch fluorescence ratio came to 1.22.
With GCGACCGTCA, the switch fluorescence ratio stood at 1.03.
For the sequence GCCTGTATGC, the switch fluorescence ratio came out at 0.952.
Next, TGAAAATGAG: 0.993; CCCAGGTTCA: 1.28; AGGCATACTT: 1.09.
Next, GACACGCTGG: 1.04.
As for AAGCTGAGCG, the figure is 0.984; as for GATCCGCCTG, 1.22; as for ATGCGAAATT, 0.977.
Consider TATGTAGGTG, for which the switch fluorescence ratio worked out at 1.12.
As for GGTGTGCCAG, the figure is 1.04.
Regarding CCTCGTTCAC, the switch fluorescence ratio worked out at 3.04.
As for TAGGCAAGAT, the figure is 1.17; as for CCTTTAAATG, 1.07.
As for AGCATTATT, the figure is 1.04.
Next, TGAGGGTCCA: 1.03; TATTTTGTTC: 1.05.
Turning to CACTCGTAGC, the switch fluorescence ratio is 0.972.
With GTAGGATGCA, the switch fluorescence ratio was found to be 1.01.
Take CCCCGTTC: the switch fluorescence ratio turned out to be 1.75.
Next, CTGTTTGCAA: 1.74; GATAAAGTGT: 1.02.
For GCTAGCTTAG, the switch fluorescence ratio worked out at 0.994.
Next, GTAATACGG: 1.31; CGGGCCAGAG: 1.01.
Next, ACGTGCATCA: 1.08; TTTATGGTCA: 1.01.

The record behind these values is the supplement of paper PMC10126150.
